Test results published in PubChem BioAssay AID493208 (National Center for Advancing Translational Sciences (NCATS), 2011).
Screen size: about 44,000 compounds; about 340 (0.77%) were called active. Another 5% or so got no clear call; they are omitted. Calls come from the whole dose curve; as a rule, active = well fitted inhibition curve with a large enough effect; inconclusive = small, poorly fitted or top-dose-only effect; inactive = flat fitted curve, though single readings scatter. The list shows a part of the results.

Assay: Acumen qHTS Assay for Inhibitors of the mTORC1 Signaling Pathway in MEF (Tsc2-/-, p53-/-) Cells: Sytravon;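 note: plate controls were DMSO for no effect and rapamycin for full effect; nearly all actives have a fitted effect of over 50% in size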
Settings: phospho-rpS6 immunofluorescence/PI, 24 h; series mostly up to 38.3 µM; activity change, negative = inhibition: at the top concentration
Method in brief: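 Tsc2-/-, p53-/- mouse embryonic fibroblasts (empty-vector line) exposed to compound 24 hrs at 37 C, fixed, immunostained for phospho-rpS6 and counterstained with propidium iodide. Acumen laser scanning gives % positive cells from Alexa 488/PI ratio, thresholded using 7.5 nM rapamycin; PI count gives viability.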

Activity change, negative = inhibition, inactive:
CC1CCN(S(=O)(=O)c2ccc(N3CCCCS3(=O)=O)cc2)CC1 2.09%
COc1ccc(CCNC(=O)Cn2cc(S(=O)(=O)Cc3ccccc3F)c3ccccc32)cc1OC 0.536%
Cc1ccc(C)n1-c1nnc(N2CCC(C(=O)Nc3ccccc3Br)CC2)s1 -9.85%
COc1ccc2c(c1)Cc1sc(NC(=O)c3ccccc3Br)nc1-2 2.62%
CCc1ccc(NC(=O)c2ccc3c(c2)N(Cc2ccc(C)cc2)CCS3)cc1 -5.16%
CCn1c(SCC(=O)Nc2ccc(C)cc2Br)nnc1-c1nonc1NC(C)=O -0.942%
CCCN1CCc2nc(N3CCN(CC)CC3)ncc2C1 4.17%
COc1ccccc1CNc1cc(-c2ccccc2)nc2nncn12 -5.29%
CCOc1cccc(C(=O)Nc2c(C(=O)c3ccc(OC)cc3)oc3ccccc23)c1 -7.05%
COc1ccc(N2Cc3cccc(C(=O)Nc4ccc(C(C)C)cc4)c3C2=O)cc1 2.38%
CCCCOC(=O)c1ccc(NC(=O)c2cc(-c3ccccc3)on2)cc1 1.38%
CS(=O)(=O)NCC(c1ccco1)N1CCN(c2ccccc2)CC1 (configuration not stated) -0.373%
O=C(CN(c1ccc(Cl)c(C(F)(F)F)c1)S(=O)(=O)c1ccccc1)N1CCc2ccccc2C1 13.2%
Cc1ccc(NC(=O)c2sc(-n3nc(C)c(CCC(C)C)c3C)nc2C)cc1C -9.51%
CC1=C(C(=O)Nc2cccnc2)C(c2ccc(F)cc2)n2nc(SCc3ccccc3F)nc2N1 (configuration not stated) -2.02%
CCN(C(=O)c1cc2c(Cl)nc3ccccc3c2s1)c1cccc(Cl)c1 -4.31%
CCOC(=O)c1cnc2c(C)c(Cl)ccc2c1Nc1ccc(C)cc1C 17.4%
CN1c2cc(Cl)ccc2-c2nc(SCC(=O)Nc3ccc(F)cc3F)ncc2S1(=O)=O -7.25%
COc1cc(NC(=O)CN(C)S(=O)(=O)c2ccc3[nH]c4c(c3c2)CCCC4)cc(OC)c1OC -1.2%
CCOC(=O)N1CCc2c(sc(NCc3ccc(OCC)cc3)c2C(=O)Nc2ccc(OC)cc2OC)C1 -2.51%
O=C(NC1CCCC1)c1ccc(CSc2nc3ccncc3n2Cc2ccccc2F)cc1 1.26%
COc1ccccc1C(=O)NCc1ccc2c(c1)CCN2C(=O)c1ccncc1 4.84%
CCOC(=O)C1CCCN(C(=O)C2CCN(c3nnc(C)c4c(C)n(-c5ccccc5)nc34)CC2)C1 (configuration not stated) -0.133%
Cc1cc(NC(=O)CSc2nc3c([nH]c4ccccc43)c(=O)n2-c2cccc(Cl)c2)no1 -0.428%
Clc1ccc(-c2noc3ncnc(NCCCN4CCN(c5ccccc5)CC4)c23)cc1 -1.05%
CCOc1ccccc1NC(=O)C(Cc1ccccc1)NS(=O)(=O)c1ccc(Br)s1 (configuration not stated) -4.49%
Cc1ccc(C)c(N2CCN(C(=O)C3CCN(S(=O)(=O)c4cn(C)cn4)CC3)CC2)c1 0%
CCc1ccc(CNC(=O)C(CC)n2ccc3cc(S(=O)(=O)N4CCCCC4)ccc32)cc1 (configuration not stated) -7.38%
COc1ccc(CNS(=O)(=O)c2cc(C(=O)Nc3cc(Cl)cc(Cl)c3)ccc2F)cc1 5.62%
CCOC(=O)Cn1c(=O)oc2cc(S(=O)(=O)Nc3cc(OC)cc(OC)c3)ccc21 -1.32%
COc1ccccc1C(=O)NCc1ccc2c(c1)CCN2C(=O)c1cccc(C)c1 1.45%
COc1ccc(N2CCN(C(=O)C3CCN(S(=O)(=O)c4cnc[nH]4)CC3)CC2)cc1 0.208%
CCc1ccccc1Nc1nn2c(=O)c3ccc(C(=O)NCc4cccs4)cc3nc2s1 -5.97%
CCn1c(C)c(C)c2cc(C(=O)NCCc3cc(OC)c(OC)c(OC)c3)ccc21 -2.59%
CCc1ccc(S(=O)(=O)c2nnn3c2nc(NCc2cccs2)c2sccc23)cc1 -1.81%
CN1CCN(C(c2ccc(F)cc2)c2sc3nc(-c4ccco4)nn3c2O)CC1 (configuration not stated) 0.0155%
Cc1cccc(C(=O)Nc2cccc(C(=O)OCc3cc(=O)n4c5c(sc4n3)CCCC5)c2)c1 0%
COc1ccc(-c2c3c(=O)n(C)c(=O)n(C)c3c3c(-c4ccccc4)nc4ccccc4n23)cc1 0.798%
O=C(Nc1ccccc1F)C(Cc1ccccc1)n1cccc1 (configuration not stated) -2.08%
COc1ccc(Cn2c(C(=O)O)c(CNCc3cccs3)c3ccc(C)cc32)cc1 -9.41%
CNC(=O)c1cc2c(n(-c3ccc(C)cc3)c1=O)CC(C)(C)CC2=O -4%
O=C(Nc1ccc2nc(SCC(=O)N3CCOCC3)sc2c1)c1ccc(F)cc1 2%
COc1cccc(C(=O)Nc2ccc3oc(-c4ccc5ccccc5c4)nc3c2)c1 -2.49%
COc1cc(OC)cc(-c2nc3nc(C)c(CCC(=O)Nc4ccc(Cl)cc4)c(C)n3n2)c1 2.25%
CCCn1cnc2cc(NCc3ccc(OC)cc3OC)ccc21 -17.9%
Cc1cc(=O)oc2cc(OCC(=O)Nc3ccc(O)c(C(=O)O)c3)ccc12 -10.5%
CCOc1ccc(CC(=O)N2CCc3cc(OC)c(OC)cc3C2COc2ccc3c(C)cc(=O)oc3c2)cc1 (configuration not stated) -19.4%
CC(C)CNS(=O)(=O)c1ccc(N2CCCCS2(=O)=O)cc1 3.64%
CCOc1ccc(NC(=O)CCc2c(C)nc3cc(-c4ccc(Cl)cc4)nn3c2C)cc1 1.6%
CCCCCn1c(=O)[nH]c2cc(C(=O)NCc3ccccc3)ccc2c1=O -5.77%
Cc1ccc(CNC(=O)CS(=O)(=O)Cc2nc(-c3ccccc3C)oc2C)cc1 -0.515%
CCCOc1ccc(NC(=O)C(=O)NCCCN2CCOCC2)cc1 -20.1%
Cc1cccc(Cn2c(SCc3ccc(C(=O)NC4CCCC4)cc3)nc3ccncc32)c1 -3.79%
COc1ccc(CNC(=O)Cc2c(C)c3c(cc(C)c4c(C)c(C)oc43)oc2=O)cc1OC -0.84%
Cc1cccc(-c2noc(CNC(=O)c3ccccc3Br)n2)c1 -3.6%
Cc1ccc(NC(=O)c2sc(-n3nc(C)c(Cc4ccc5c(c4)OCO5)c3C)nc2C)cc1Cl 0.332%
Cc1cccc(NC(=O)C2CCN(c3cnccn3)CC2)c1 -4.84%
COc1ccc(Cn2c(=O)c3ccccc3n3c(-c4cccc(OC)c4OC)nnc23)cc1 0.0043%
COc1ccc(CC(=O)Nc2ccc3nc(N4CCCCC4)cc(C)c3c2)cc1 0%
CC1CCN(S(=O)(=O)c2ccc3c(c2)oc(=O)n3CC(=O)O)CC1 -6.71%
CCOC(=O)c1c(NC(C)=O)c2c3c(sc2n1Cc1nc(-c2ccccc2Cl)oc1C)CCCC3 -5.65%
Cc1ccc(CNC(=O)c2cc3c(s2)-c2c(C)cccc2OC3)cc1 -4.95%
COc1ccc2c(c1)c1c(c(=O)n(Cc3ccccc3)c(=O)n1CC(=O)NCc1ccccc1)n2C 4.04%
Cc1cc(C)cc(NC(=O)N2CCN(c3cc(-c4noc(C)n4)ccc3C)CC2)c1 -1.07%
CCOCCCNC(=O)c1ccc(-n2c(-c3ccccc3)cc3c2CCCCC3)cc1 -8.07%
CCC(=O)N1CCc2cc(Br)cc(S(=O)(=O)CCC(=O)Nc3cccc(C)c3C)c21 -23.1%
COc1ccccc1NC(=O)c1sc2nc3c(cc2c1N)CN(Cc1ccccc1)CC3 -6.83%
O=C(CSc1nc(=O)[nH]c2c1CCCC2)NCc1ccc(F)cc1 -3.47%
CCOC(=O)c1c(C)c(-c2ccccc2)n(CC(=O)NCCc2cccc(C)c2)c1C -1.06%
COCCn1c(C)cc(O)c(C(c2ccc(F)cc2)N2CCN(c3ccccc3)CC2)c1=O (configuration not stated) 9.64%
COc1ccc(CC(=O)NCCS(=O)(=O)N2CCN(c3ccc(F)cc3)CC2)cc1OC -0.0481%
N#Cc1ccccc1Cn1cnc2nc3c(cc2c1=O)CCCC3 -10.6%
CCc1nc(C)cn1S(=O)(=O)c1ccc(Cl)c(Cl)c1OC -16.7%
Cc1nnc2c(N3CCN(c4ccccc4F)CC3)nc3ccc(C(=O)c4ccccc4)cc3n12 0%
Cc1cccc(CC(=O)NCc2nc3cccnc3n2Cc2ccc(F)cc2)c1 -0.884%
CCc1cc(=O)[nH]c(SCc2nc(-c3ccccc3)no2)n1 0.65%
Cc1cccc(C(=O)NC2=NC(c3ccc(Cl)cc3)CC(=O)N2)c1 (configuration not stated) -8.94%
O=C(Nc1cccc(Cl)c1)C1CCCN(c2ncnc3c2nc2n3CCCCC2)C1 (configuration not stated) -12.1%
CCOC(=O)C1CCC(CN(Cc2ccc(OC)cc2)S(=O)(=O)c2ccc(F)c(C(=O)Nc3c(C)cccc3C)c2)CC1 (configuration not stated) 6.43%
O=C(Cn1cnc2c(nc3n2CCCCC3)c1=O)Nc1ccc(F)c(Cl)c1 -5.62%
CS(=O)(=O)Nc1ccccc1C(=O)OCc1cc(=O)n2nc(C3CCCCC3)sc2n1 0%
Cc1cc(F)ccc1NC(=O)CS(=O)(=O)c1cccc2nsnc12 -1.67%
Cc1ccccc1Nc1c(-c2ccccc2)nc2cccc(C)n12 3.85%
CSc1ccc(CCNC(=O)c2cc3cc(S(=O)(=O)N4CCCCC4)ccc3n2C)cc1 2.18%
COc1ccc(CNc2nc(SCc3ccccc3Cl)nc3ccccc23)cc1 1.87%
COc1ccc(N2CC(NC(=O)C3CCCC3)CC2=O)cc1OC (configuration not stated) -0.393%
COc1ccc(CCNC(=O)c2cn(C)c3ccc(S(=O)(=O)N(C)C)cc3c2=O)cc1OC 5.7%
CC1CCCN(S(=O)(=O)c2cc3c4c(c2)CC(=O)N4CCC3)C1 (configuration not stated) -8.87%
CC(C)c1ccc(NC(=O)Cn2nnc(C(=O)NCc3ccc(Cl)cc3)c2N)cc1 -0.203%
CCN(C(=O)c1cn(CC(C)C)c(=O)c2cc(OC)c(OC)cc12)c1cc(OC)ccc1OC -1.55%
COc1ccc2c(c1)sc1ncc(C(=O)NCc3cccc(C)c3)c(=O)n12 -5.37%
CCc1ccc(C(=O)c2cn(CC(=O)Nc3cc(F)ccc3F)c3nc(C)ccc3c2=O)cc1 -4.43%
CCc1ccccc1NC(=O)Cn1ccn(Cc2ccccc2)c(=O)c1=O 0%
COc1ccc(NC(=O)CCc2nnc3n(Cc4ccc(C)cc4)c(=O)c4ccccc4n23)cc1 0.247%
CC1CCCCN1C(=O)CCS(=O)(=O)c1cc2c(cc1Cl)NC(=O)CO2 (configuration not stated) 3.98%
COc1cccc(CNCCCSc2nnnn2C)c1OC -3.32%
CCS(=O)(=O)c1nc(S(=O)(=O)c2ccc(C)cc2)c(NC)s1 3.49%
